Laboratory results from PubChem BioAssay AID1508649 (National Center for Advancing Translational Sciences (NCATS), 2021).
Hit rate of the full screen: of about 43,000 compounds, about 830 (1.9%) were called active. This list was built around the results that the source calls inconclusive (neither active nor inactive); the mix of calls is not that of the screen. How the source made its calls: active means clear falling dose curves in both reporters; inconclusive means both reporters move, but less clearly or upward; inactive means either reporter flat; the % is the NLuc reporter signal. No potency is given beside an inconclusive call; the fits are too rough.

Assay: Cell-based coincidence reporter assay to measure PMP22 gene transcription in S16 Pmp22-F2sN cells - Primary screen
Settings: S16 Pmp22-F2sN Schwann cells (luciferase reporters placed in the Pmp22 gene), FLuc/NLuc coincidence luminescence, 24 h; measured here: NLuc reporter readout, at 57.5 µM (top of the series)
How it was run: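 Reporter cells (S16 Pmp22-F2sN, 500–1,000 per well) exposed to compounds for 24 h, 37C, 5% CO2; lysis with FLuc read after 10 min, then Stop&Glo and NLuc read after 10 min.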
Potency means the concentration at half of the fitted maximal effect; tags describe the fitted curve by direction and shape.

Row | Compound | Potency
1 | CCCOc1ccc(C2c3c(-c4ccccc4O)n[nH]c3C(=O)N2CCc2ccccc2)cc1OCC (centres undefined) | inconclusive [phenotype inactive, single point]
2 | CCS(=O)(=O)N1CCCc2cc(C(=O)Nc3cccc(C(C)=O)c3)ccc21 | inactive
3 | COc1cccc(-n2c(=O)c3cc(OC)c(OC)cc3n(CC(=O)Nc3ccc(F)cc3)c2=O)c1 | inconclusive [phenotype inactive, single point]
4 | COc1ccc(-n2c(SCC(=O)NCc3ccc(Cl)cc3)nc3ccsc3c2=O)cc1 | active: 15.8 µM
5 | Cc1ccc(C)c(NC(=O)CSc2nccn2-c2cccc(C)c2C)c1 | inconclusive [phenotype inactive, single point]
6 | CC(=O)Nc1ccc(NC(=O)c2nc(S(=O)(=O)Cc3ccc(F)cc3)ncc2Cl)cc1 | active: 1.89 µM
7 | COc1ccc(S(=O)(=O)N2CCC(Oc3ccc(-n4cnnn4)cc3)CC2)cc1 | inconclusive [phenotype inactive, single point]
8 | O=C(c1ccc(F)cc1)N1CCc2c([nH]c3ccccc23)C1c1ccc(Cl)cc1 (centres undefined) | inconclusive [phenotype inactive, single point]
9 | COc1cc2c(cc1OC)C(c1cccc(Cl)c1)CC(=O)N2 (centres undefined) | inconclusive [phenotype inactive, partial curve]
10 | COc1ccc(CC(=O)N2CCc3cc(OC)c(OC)cc3C2COc2ccc(F)cc2)cc1 (centres undefined) | inconclusive [phenotype inactive, single point]
11 | Cc1ccc(Nc2nc3nonc3nc2Nc2cccc(C(F)(F)F)c2)cc1Cl | active: 7.61 µM
12 | COc1ccc(NC(=O)Cn2c(=O)n(-c3cc(C)cc(C)c3)c(=O)c3oc4ccccc4c32)cc1OC | inconclusive [phenotype inactive, partial curve]
13 | CCOc1ccccc1NC(=O)c1c(NC(=O)COc2ccc(Cl)cc2)sc2c1CCCCC2 | inactive
14 | CC(=O)N1CCCc2cc(S(=O)(=O)N3CCCC(C(=O)N4CCN(c5cccc(Cl)c5)CC4)C3)ccc21 (centres undefined) | active: 10 µM
15 | Cc1cc(C)c(Cn2c3ccccc3c3cnn(CC(=O)NCc4cccs4)c(=O)c32)c(C)c1 | inconclusive [phenotype inactive, single point]
16 | COc1ccccc1OC(C)C(=O)Nc1cccc(-c2nc3ccccc3s2)c1 (centres undefined) | inconclusive [phenotype inactive, single point]
17 | COc1ccc(CN2CCc3c(c(=O)n4ncc(C(=O)N5CCN(c6ccccc6OC)CC5)c4n3C)C2)cc1 | inconclusive [phenotype inactive, single point]
18 | CCOC(=O)c1ccc(NC(=O)Cn2nc3c4ccccc4n(Cc4cccc(F)c4)cc-3c2=O)cc1 | inconclusive [phenotype inactive, single point]
19 | Cc1ccc(N2CCN(C(=O)c3nn(C)c4c3CS(=O)(=O)c3ccccc3-4)CC2)c(C)c1 | inconclusive [phenotype inactive, single point]
20 | O=C(NCCc1ccccc1)c1ccc2c(c1)N(Cc1ccc(Cl)cc1)C(=O)CS2 | inconclusive [phenotype inactive, single point]

Row | Compound | Potency
21 | O=C(Nc1ccc2oc(-c3ccccc3)nc2c1)c1ccc2ccccc2c1 | inconclusive [phenotype inactive, single point]
22 | O=C(CCS(=O)(=O)c1ccccc1)N(Cc1cccnc1)c1nc2c(Cl)cccc2s1 | inconclusive [phenotype inactive, partial curve]
23 | CCOC(=O)c1c(C)oc2nc(C)nc(N(CC(C)C)CC(C)C)c12 | inconclusive [phenotype inactive, single point]
24 | CCOc1ccc(NC(=O)CSc2nc(-c3cccs3)cc(C(F)(F)F)c2C#N)cc1 | inactive
25 | Cc1ccc(-c2noc(-c3ccccc3NC(=O)C3CC(=O)N(c4cccc(C)c4)C3)n2)cc1 (centres undefined) | inactive
26 | Cc1cccc(NC(=O)CSc2nc(=O)n(Cc3ccncc3)c3c2CCC3)c1C | inactive
27 | CCCOc1ccc(C2C(=O)N(C3CCCCC3)CC(=O)N2CCc2ccccc2)cc1OC (centres undefined) | inconclusive [phenotype inactive, partial curve, poor fit]
28 | CCCCCNC(=O)c1cc2c(=O)n3ccccc3nc2n1C | inactive
29 | CC1=Nc2cc(C(=O)NC3CCCCC3)ccc2Sc2ccc(Cl)cc21 | active: 6.05 µM
30 | COc1cccc(NC(=O)Nc2ccc3nc(N4CCN(C)CC4)cc(C)c3c2)c1 | inconclusive [phenotype inactive, single point]
31 | CCOC(=O)c1cnc2ccc(OCC)cc2c1N1CCN(c2ccccc2F)CC1 | inconclusive [phenotype inactive, single point]
32 | COCCCNC(=O)c1ccc2c(c1)nc1n2CCCCC1 | inactive
33 | COc1cc(-c2nc3ccccn3c2Nc2ccccc2C)ccc1O | inconclusive [phenotype inactive, partial curve, poor fit]
34 | CCOc1ccc(S(=O)(=O)NCC(c2ccco2)S(=O)(=O)c2ccc(C)cc2)cc1 (centres undefined) | inconclusive [phenotype inactive, single point]
35 | COc1ccc(OC)c(C2c3c(-c4ccc(Br)cc4)n[nH]c3C(=O)N2c2ccc(Cl)cc2)c1 (centres undefined) | inconclusive [phenotype inactive, single point]
36 | Cc1oc(-c2ccccc2)nc1Cn1c(SCc2cccc(C(F)(F)F)c2)nc2cccnc21 | inconclusive [phenotype inactive, single point]
37 | CCc1ccccc1Nc1nn2c(=O)c3ccc(C(=O)NC4CCC(C)CC4)cc3nc2s1 (centres undefined) | inconclusive [phenotype inactive, single point]
38 | CCN(CC)C(=O)Cn1c(=O)n(-c2ccc(Cl)cc2)c(=O)c2c3c(sc21)CCCCC3 | inconclusive [phenotype inactive, single point]
39 | CCCN(Cc1cccs1)C(=O)Nc1cc(C)cc(C)c1 | inactive
40 | COc1ccc(NS(=O)(=O)c2ccc3c(c2)CC(C)N3C(=O)C2CCC2)cc1OC (centres undefined) | active: 2.99 µM

Row | Compound | Potency
41 | CCC12CN3CC(CC)(CN(C1)C3c1c[nH]c3ccccc13)C2=O (centres undefined) | inconclusive [phenotype inactive, partial curve, poor fit]
42 | Cc1noc2ncnc(NCCc3ccccc3)c12 | inconclusive [phenotype inactive, partial curve]
43 | CCOCCCNC(=O)C1CCCN(c2ncnc3onc(C)c23)C1 (centres undefined) | inconclusive [phenotype inactive, partial curve, poor fit]
44 | O=C(Cn1cc(SCc2ccc(F)cc2)c2ccccc21)N1CCCCCC1 | inactive
45 | CCOc1ccc(C2CC(=O)c3c([nH]c(C(=O)OCCOc4ccccc4)c3C)C2)cc1 (centres undefined) | inconclusive [phenotype inactive, partial curve, poor fit]
46 | Cc1ccc(C)c(N2CCN(C(=O)c3ccc(-c4nc(COc5ccccc5)c(C)o4)cc3)CC2)c1 | inconclusive [phenotype inactive, single point]
47 | COc1ccc(Cn2ccnc2SCC(=O)Nc2ccc3c(c2)OCO3)cc1 | inactive
48 | CCc1cccc(CC)c1NC(=O)CCS(=O)(=O)c1ccc(Br)s1 | inconclusive [phenotype inactive, partial curve, poor fit]
49 | N#Cc1c[nH]n2c(NC3CCCC3)c(-c3cccc(Br)c3)nc12 | inactive
50 | CC1CCN(S(=O)(=O)c2ccc3c(c2)CCN3C(=O)Nc2cccc(Br)c2)CC1 | inconclusive [phenotype inactive, single point]
51 | Cc1cccc(C(=O)NCC(c2cccs2)S(=O)(=O)c2cccs2)c1 (centres undefined) | inactive
52 | Cc1cccc(N2CCN(C(=O)c3ccc4nc(N5CCC(C)CC5)sc4c3)CC2)c1C | inconclusive [phenotype inactive, single point]
53 | Cc1nc2sc(C)c(C)n2c(=O)c1S(=O)(=O)N1CCN(c2ccccc2F)CC1 | inconclusive [phenotype inactive, single point]
54 | Cc1ccc(N(CC(=O)N2CCN(c3cccc(C)c3C)CC2)S(=O)(=O)c2c(C)nn(C)c2C)cc1 | inconclusive [phenotype inactive, single point]
55 | COc1ccc(C(=O)NCc2ccc3c(c2)CCN3C(=O)c2ccc(Cl)cc2)c(OC)c1 | inconclusive [phenotype inactive, single point]
56 | COC(=O)c1ccc2c(c1)N(CC(=O)Nc1ccc(C)cc1Cl)C(=O)c1ccccc1S2 | inconclusive [phenotype inactive, single point]
57 | CCSc1nc2sc3c(c2c(=O)n1-c1ccc(C)c(Cl)c1)CCN(C(C)=O)C3 | inconclusive [phenotype inactive, partial curve, poor fit]
58 | CCN(CC)c1nn2c(=O)c(C(=O)NCc3ccccc3Br)cnc2s1 | inconclusive [phenotype inactive, partial curve, poor fit]
59 | Cn1nc(C(=O)NCc2ccccc2Cl)c2c1-c1ccccc1SC2 | inactive
